# Results: article PMC4336329 (PLoS ONE, 2015)
# Hit rate of the full screen: of about 310,000 compounds, about 2,200 (0.71%) showed an effect of 50% or more. The effect is printed as a negative number. This is one part of the list.
# Biological target: human ether-à-go-go-related gene (hERG) potassium channel (human, UniProt Q12809)
# Test: primary screen, population patch clamp on CHO cells stably expressing hERG
# Chain of human ether-à-go-go-related gene (hERG) potassium channel (Q12809 whole entry, looked up): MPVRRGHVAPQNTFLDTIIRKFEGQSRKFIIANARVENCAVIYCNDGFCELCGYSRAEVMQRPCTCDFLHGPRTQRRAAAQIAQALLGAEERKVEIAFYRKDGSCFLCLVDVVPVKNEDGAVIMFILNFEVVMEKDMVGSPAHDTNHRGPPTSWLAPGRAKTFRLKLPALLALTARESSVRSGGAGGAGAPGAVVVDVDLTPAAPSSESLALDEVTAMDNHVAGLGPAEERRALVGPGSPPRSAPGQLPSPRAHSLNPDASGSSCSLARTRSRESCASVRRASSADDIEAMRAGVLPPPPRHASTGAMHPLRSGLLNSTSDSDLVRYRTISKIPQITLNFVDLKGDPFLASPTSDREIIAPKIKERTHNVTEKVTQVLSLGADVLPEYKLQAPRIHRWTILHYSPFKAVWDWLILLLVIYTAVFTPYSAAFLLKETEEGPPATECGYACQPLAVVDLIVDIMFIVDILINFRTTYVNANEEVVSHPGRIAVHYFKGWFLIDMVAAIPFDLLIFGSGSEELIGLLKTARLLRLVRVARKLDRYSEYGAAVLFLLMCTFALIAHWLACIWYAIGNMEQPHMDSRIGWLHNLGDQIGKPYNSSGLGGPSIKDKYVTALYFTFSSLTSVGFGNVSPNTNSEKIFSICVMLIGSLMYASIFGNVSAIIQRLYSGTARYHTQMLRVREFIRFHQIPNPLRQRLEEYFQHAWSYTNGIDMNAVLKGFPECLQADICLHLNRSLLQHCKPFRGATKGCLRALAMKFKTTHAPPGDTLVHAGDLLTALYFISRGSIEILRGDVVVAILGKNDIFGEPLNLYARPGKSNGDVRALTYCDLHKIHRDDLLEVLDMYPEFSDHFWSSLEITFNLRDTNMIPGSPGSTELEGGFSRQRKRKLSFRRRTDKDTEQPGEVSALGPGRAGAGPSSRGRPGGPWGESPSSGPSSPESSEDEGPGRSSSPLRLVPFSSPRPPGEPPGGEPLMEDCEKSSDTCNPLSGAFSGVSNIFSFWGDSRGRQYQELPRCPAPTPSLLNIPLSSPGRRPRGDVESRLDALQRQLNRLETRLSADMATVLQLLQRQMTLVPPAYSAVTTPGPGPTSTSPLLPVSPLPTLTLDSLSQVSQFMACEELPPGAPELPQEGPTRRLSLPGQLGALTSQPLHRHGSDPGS
row,SMILES,"hERG current change (%, negative = inhibition) at 1uM"
1,CNC(=S)N1CCN(c2nc3ccccc3s2)CC1,9.23%
2,COc1ccc(S(=O)(=O)Nc2cccc(-c3ccc4nncn4n3)c2)c(OC)c1,-9.85%
3,COc1cc(OC)cc(C(=O)N[C@H](C(=O)OCC(=O)Nc2cccc(F)c2)C(C)C)c1,3.74%
4,O=C(c1cccs1)N1CCCC(c2nc3c(nnn3Cc3ccccc3)c(=O)[nH]2)C1 (stereo not shown),-6.64%
5,COc1ccc(CNC(=O)CN2CCN(S(=O)(=O)c3ccccc3)CC2)cc1,6.11%
6,C/C(=N/OC(=O)c1ccc(C(F)(F)F)cc1)c1oc(C)nc1C,14.3%
7,CCCCN(CCCC)C1=Nc2ccccc2N/C1=C(/C#N)C(=O)OCC,2.26%
8,COc1ccccc1/C=C/c1nc(S(=O)(=O)c2ccccc2)c(N2CCC(C(N)=O)CC2)o1,6.21%
9,CC(C)n1cnc2c(Nc3cccc(Cl)c3)nc(NCCCO)nc21,10.5%
10,Cn1cnnc1SCC(=O)NCCc1ccccc1,17.6%
11,COc1cc(NC(=O)c2ccc(C(=O)c3ccccc3)cc2)cc(OC)c1OC,13.5%
12,Cc1csc(NC(=O)CSc2nnc(Cc3cccn3C)n2CCc2ccccc2)n1,3.72%
13,COc1cccc(CN(CC(=O)NC2CCCCC2)C(=O)c2csnn2)c1,12.9%
14,O=C(NNC(=S)Nc1ccc(Cl)cc1)c1ccccc1OC(F)F,9.26%
15,NC(=O)C1CCN(C2CC(=O)N(Cc3ccc(N4CCCC4=O)cc3)C2=O)CC1 (stereo not shown),8.17%
16,Cn1c(C(=O)NCCN2CCOCC2)cc2c(=O)n3ccccc3nc21,15%
17,CCOC(=O)c1c(NC(=O)/C=C/c2ccco2)sc(C)c1C,10.7%
18,Cc1nnc(SCC(=O)NC2CCCc3c2cnn3-c2ccc(F)cc2F)o1 (stereo not shown),11.7%
19,CN1CCN(S(=O)(=O)c2ccc(Cl)c3ccccc23)CC1,13.6%
20,CC(CN1CCCCC1)OC(=O)c1ccc2c(c1)OCCO2.Cl (stereo not shown),-2.94%
21,CNCCc1ccccc1,18.3%
22,Cc1ccccc1NC(=S)NC(=O)/C=C/c1ccco1,17.7%
23,FC(F)(F)c1cccc(N2CCN(Cc3cccnc3)CC2)c1,3.56%
24,CCc1c(C)nc2ncnn2c1NCCc1ccc(OC)c(OC)c1,3.53%
25,CC(C)(C)n1cc(C(=O)c2ccccc2)cc1-c1ccccc1,7.6%
